Among the data in publication PMC10726135 are binding signal (log2 normalized intensity) values, retold here.

Some of the results follow. At the low end of the ranking the order means little. The protein was read in a cell extract, so binding may be indirect.

For this experiment, the target named is T1, HNF4alpha8 (COS-7 nuclear extract) (UniProt P41235-5).
T1 sequence: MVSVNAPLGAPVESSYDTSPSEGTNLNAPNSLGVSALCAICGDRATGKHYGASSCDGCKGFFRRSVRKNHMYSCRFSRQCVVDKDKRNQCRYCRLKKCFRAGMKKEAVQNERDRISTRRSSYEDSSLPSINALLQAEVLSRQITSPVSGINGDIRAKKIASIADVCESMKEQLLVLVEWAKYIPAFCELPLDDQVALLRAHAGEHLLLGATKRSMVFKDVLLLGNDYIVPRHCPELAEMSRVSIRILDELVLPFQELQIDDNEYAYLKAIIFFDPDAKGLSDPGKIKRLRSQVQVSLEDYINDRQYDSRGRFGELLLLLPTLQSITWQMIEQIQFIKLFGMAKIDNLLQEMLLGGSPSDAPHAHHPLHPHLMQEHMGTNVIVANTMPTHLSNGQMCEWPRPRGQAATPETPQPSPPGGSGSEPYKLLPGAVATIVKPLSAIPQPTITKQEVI
Briefly: protein-binding microarray. Conditions: COS-7 nuclear extract on double-stranded Agilent 4x180k PBM; binding buffer, salt, pH and temperature not given; high values mean tight binding; double strand, one strand shown; sequences stand for … in …GCCTAGGGAGATTAGAGTATCGGTCGA
AAATCTTCTTTAAGCTATGTGGTGGAATGG: the binding signal (log2 normalized intensity) came out at 1.8. The same measure for CCAAGGCTTCCAATCCTGGAGAAGGAGCAC: -1.31; for TACTCAGCTAATCTAGAGACACTATGTGCA: -0.633; for TTCCACCTCCCTCCATGCTGTAGATTGTGG: 1.24. On to TGGATCGGGATGATCAATGTGTAGTTTCAC, for which the binding signal (log2 normalized intensity) was 1.11. Consider GAAACTGTTTCCAATAGGTTTGATTTCAGC, for which the binding signal (log2 normalized intensity) is -1.35.

In the case of ACTGGCTAAATCCCACCAAAGCCATGAGGC, the binding signal (log2 normalized intensity) amounted to 1.13.

Turning to AATGACTTGCCCAAGGGCATGGGAAGCAGT, the binding signal (log2 normalized intensity) was -1.29.

Regarding GCTGAACCTAGAGCTTCAGACGCCCTATGG, the binding signal (log2 normalized intensity) was -0.782.

In the case of CCTCTAACTATGCAGTGTCCATGGTGACCA, the binding signal (log2 normalized intensity) is 2.01.

Consider CTGTTTCAAAACTACAAAGTGGTTTTCTTG, for which the binding signal (log2 normalized intensity) turned out to be 0.891. In the case of GTGCTCTCAGATAAGAGATGAGGAACTTGT, the binding signal (log2 normalized intensity) was -1.18.

Regarding GAATCTCAGGAGTGATGCCAGAAGATTAGT, the binding signal (log2 normalized intensity) is -1.19. To TACCAAAGACTGAGCAGCTGGAGGGGGACT belongs -1.38. To CTTTTGCTGACATGCTCTTGGAATGTTGAA belongs 1.68; to GGAACGCGCGGGCAGGTTGCCCTTTCGGTG, 4.05; to CAAGTACCCTTTATCCCTCACAATCTTAAG, 0.843. To TACTCTCATCACTTAGGATATTCCAAGGGG belongs 0.662; to TCTGCCCCCTACACAGAGGAGCGACCCAGG, 3.24; to CTTGGTATCAGCTTTGAGACACCTGGCCAA, -1.16.

Consider AGAGGCCAATTTCTTGTCTGGTCCGAAGGT, for which the binding signal (log2 normalized intensity) came to 1.68. To GGGAATTCAAGGAATGCAGCTCAGACTGCT belongs -1.33; to CTTATCTACTTTAAGATTTGACCCTTGGCC, 7.78; to GCATGGTGCTTCGCACTTCAGCACCATAAA, 0.965.

Turning to GAATATTTAAGATTCCAGCTCTCGGATCCT, the binding signal (log2 normalized intensity) is -1.28. The same measure for ACATGATGTCAGTTTGACTCCAAAGGGCTG: 0.898; for ATCCTCATTGTGTGCAGACCTTCTCTGGCC: 1.23; for GTCCAAAGTCTTTGTTCCTAGCCACCATGC: 0.801. For GATATTTTTCAGACCTTGCATTCTGAGGAA, the binding signal (log2 normalized intensity) was -1.24. The same measure for TAAAACTGCAGATTGACTCAGGCATTCTGA: -1.12; for ATTCTAGAGGTCAGAAGTCCAAAATCAGTC: 4.43. Turning to TATTAAATGGAATACTTGCCTAAGGTCAAT, the binding signal (log2 normalized intensity) worked out at 2.71. To GGCTTCGTCCCTGGGGCCCCACTGGGGTGG belongs -1.16. To CTGCACTGACCTTTACCCATTCCTTAGTGC belongs 5.03; to TTGACCTCTCTCTCCTAACTATGGTCACGC, 2.99. To ACTTAGCTCTTTAGGAATGCAACTCTAACC belongs -1.15; to TTAGTTTCTTTACCATGTGTTGGCACTTTG, 1.73. For the sequence CATCCATATCATTAGTCTCTGCTGGCTTTC, the binding signal (log2 normalized intensity) was found to be 0.387. The same measure for AATTAGCTTGAGCGAGACAGCGGGTGTTTC: -1.3; for ACACTGGGCTAGAGGTCTTAATCTTTTTAC: 1.15.

Consider CGCAGCCGCGCTCCGCCCCGTTCCCGGCAG, for which the binding signal (log2 normalized intensity) was -1.33.

Turning to GGCCAAGGGATTTCAGTGCCCTCATAAGAG, the binding signal (log2 normalized intensity) is -1.28. The same measure for TCAGCAGTTGTTCAAAGTCCATGTGTTAAA: 4.84.

With AATAGGGTGACAGTATCAAAGTCCCCAGAT, the binding signal (log2 normalized intensity) was determined as 2.49. To GGGACTGCAAGTACGATTGGCTGGACATCT belongs -1.27; to GTACCAAAATCACACTGGGAATTGGGATGG, -1.34. The same measure for TACCATGTCCTGTGATTAAGGTCAATGGGA: 2.3. To TGGGGTACTTGAACCCTACTCATAATTGCT belongs 0.903; to ATCCACAAAGATAAGAAAAAAACAGCACAA, -1.18.

In the case of CAGTTCAAAAGTTCAAAGATATGATGGCCA, the binding signal (log2 normalized intensity) stood at 2.12. To AACCCAAGGCCAAACACGGACAGGCAGGCC belongs -1.32. The same measure for AGCAAACAATGATGAAAGGAGCTTGGGAAG: -1.39; for CCCTAATTACATATTAACCTTTGCCCCAGC: 7.29; for GTTTCACCCTGAGGAATCCCATTCCCTCTA: -1.18. To CTGGGCAGATAACAGCGAACATGAGGAATA belongs -1.06; to GGACACAAAGAGTTCAGAGAGGGATTAAAG, -1.29; to AGCAGGACACCAAACAGACCTCCCCCAACT, 4.08. For AAGAGATAAAAGAGAAGATAATGGATTGGG, the binding signal (log2 normalized intensity) is -1.35. The same measure for GTGAGGTCACAGTATTCATTCCCCTAGTAT: 2.84; for CTCCCCCACCACTGCTTCCTGCCCCCTGTG: 5.88; for TCATGTTCAATATACAGTTGGTATTTAGTA: 1.71. The same measure for AGCAAAAAGTTTGGACTAGCCACAGGGGAA: -1.31. To GCCCTACAGCTCCTGAGTCCACATGAGCCT belongs 0.625; to CTGGCCATGCCCCAGATGCCCAGCAGAGGG, -1.06; to AACAGCCCCATGAGATAGGTACTATTATTA, 0.551. As to GCCATCTGGTGGACTTTGCTCTGCTCATTT, the binding signal (log2 normalized intensity) amounted to 7.25. With TAGCAACCAAGTACCGCAAACAAGGTGGCT, the binding signal (log2 normalized intensity) is -1.26.

As to ACTTTGTAGCTCAAACAGTCTAAAAACCAT, the binding signal (log2 normalized intensity) is -1.35. The same measure for ACTTTGACTTCCATTGTGTTGCAGATGATC: 1.67; for CTTTGAGAAAGCAAAGTCCCTGGGGACAGG: -0.149; for TTGGTACCTCCCCCCACACCATTAGAGAAC: 5.27. The same measure for GGAATGAATCAGAATTTGGAGAATTCAGAC: -1.35; for CTGGATTCTCAAACCTTCCAAAGTTCAACC: 4.09. With ACACACACACACACACACATTGCAGTATGC, the binding signal (log2 normalized intensity) is -1.18. To TTGCCTCATGTTTGCAGAATGGCTGATGTA belongs 1.58.

TTTTAGAATTAACTAAAAGTATCTAAGGGC: the binding signal (log2 normalized intensity) was found to be 0.0738. Turning to AAAGGCAACATCTTGAGCCAGGAATGCAAG, the binding signal (log2 normalized intensity) is -1.26. As for AGGCTCAGAGGTCAAGTCACTGCTCAAAAA, the binding signal (log2 normalized intensity) came to 1.7. On to ATTCCGGCCGTATCAGAAGAACTGCACTGT, for which the binding signal (log2 normalized intensity) is 0.189. The same measure for GACTCCTCCCTCAGCCTGAACCTCTGTCTC: 0.92; for CTTCATATCAGTAAACCCCAATCAGGTTTC: 1.27. The same measure for AAAACTGGTCAATATCCACACAAACCCAGT: -0.919. On to GCAGGAGCTGGCCTGGTAGGACAGGGATCC, for which the binding signal (log2 normalized intensity) is -1.32. The same measure for TGATATTGTGAAATATATATTTGCTCTTCA: 1.27. The same measure for CATTCAGCACCAGGGATAGCGCCCACACTG: -1.29; for GACTTTAACCCCCTTGTCTTCCTCAAATTA: 2.74. The same measure for AATTCCTTTCAAACTGTATTGCTCAATGTC: 0.181; for GCTTATGTTTGCAAGTCGAGCAAGGTTCAG: 2.45. Consider GCTGATCCTATTTACCTGCCTGTGCTGTGG, for which the binding signal (log2 normalized intensity) was found to be 1.23. The same measure for AAGGTTGCAGAGTGTCCCACTTCAGGCAGG: -1.27; for AAAACAGCATGCGGTAAAGAAGCCAGCCAA: -1.05. The same measure for CCTTATCAGCGGCCCTGTGCTGCCCCCGAT: 4.76; for TTCTTCTGCTTCCCTAGGGAGGTGATTGGT: 1.08.
